Experimental data from the supplement of paper PMC10441789.
This is one part of the list. Antibody binding of pooled human sera (four to six donors per pool; dilution not stated) to peptides of the Trypanosoma cruzi antigen TSSA on microarrays. Quantile-normalised fluorescence in arbitrary units, mean of duplicate arrays; higher = more binding. No active / inactive call. The uninfected pools are read here as the healthy donors of the same country. The strongest signals lie near the top of the scale (about 60,000).

Assays:
Test in all cases: antibody binding signal (normalised fluorescence) (arbitrary fluorescence units); higher = stronger serum antibody binding to peptide
[1] = test system: pooled sera of chronic Chagas disease patients, Argentina
Procedure: (§1)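 Microarray of 15-residue peptides over residues 30-55 of Trypanosoma cruzi TSSAII, each with 1 to 10 substitutions at naturally variable positions, probed with one serum pool per country.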

[2] = test system: pooled sera of chronic Chagas disease patients, Bolivia
Procedure: as §1

[3] = test system: pooled sera of chronic Chagas disease patients, Brazil
Procedure: as §1

[4] = test system: pooled sera of chronic Chagas disease patients, Colombia
Procedure: as §1

[5] = test system: pooled sera of chronic Chagas disease patients, Mexico
Procedure: as §1

[6] = test system: pooled sera of chronic Chagas disease patients, USA
Procedure: as §1

[7] = test system: pooled sera of uninfected people, Argentina
Procedure: as §1

[8] = test system: pooled sera of uninfected people, Bolivia
Procedure: as §1

[9] = test system: pooled sera of uninfected people, Brazil
Procedure: as §1

[10] = test system: pooled sera of uninfected people, Colombia
Procedure: as §1

[11] = test system: pooled sera of uninfected people, Mexico
Procedure: as §1

[12] = test system: pooled sera of uninfected people, USA
Procedure: as §1

Sequence | antibody binding signal [1] | antibody binding signal [2] | antibody binding signal [3] | antibody binding signal [4] | antibody binding signal [5] | antibody binding signal [6] | antibody binding signal [7] | antibody binding signal [8] | antibody binding signal [9] | antibody binding signal [10] | antibody binding signal [11] | antibody binding signal [12]
TISTPPSGKENKTAT | 17900 | 11800 | 10600 | 1630 | 4530 | 2550 | 2660 | 1430 | 326 | 667 | 391 | 486
GKEKKPATGETPSPS | 27900 | 3070 | 18800 | 3170 | 5820 | 20800 | 166 | 172 | 93.9 | 118 | 610 | 893
SGTDNKAATGGAPSP | 1350 | 412 | 44300 | 1110 | 474 | 1620 | 354 | 631 | 1580 | 227 | 216 | 261
KEKKAAAGEAPSPPG | 178 | 187 | 425 | 164 | 131 | 6760 | 113 | 69.2 | 101 | 96.3 | 73.8 | 82.9
GKENKAATGGTPSPP | 5860 | 2040 | 14400 | 9830 | 9190 | 20300 | 329 | 113 | 148 | 141 | 148 | 182
KDNKAATGGAPSPPG | 301 | 264 | 513 | 280 | 247 | 1220 | 324 | 1050 | 160 | 149 | 91.5 | 92.5
TPPSGKEKKAAAGEA | 11600 | 318 | 527 | 825 | 10400 | 1340 | 422 | 475 | 90.8 | 291 | 81.4 | 122
GKEKKPAAGETPSPP | 4590 | 405 | 874 | 3390 | 3280 | 3260 | 128 | 125 | 92.1 | 116 | 78.8 | 381
TPPSGTEKKTATGGT | 25900 | 1380 | 21300 | 471 | 7950 | 2250 | 784 | 296 | 1280 | 136 | 132 | 167
TSSTPPSGTENKPAA | 47400 | 42100 | 47800 | 1630 | 5530 | 38100 | 7810 | 1620 | 899 | 919 | 724 | 982
GTEKKTAAGGTPSPP | 709 | 210 | 198 | 11700 | 811 | 2430 | 137 | 454 | 801 | 396 | 281 | 151
GKENKTATGEAPSPP | 17400 | 18300 | 23900 | 9150 | 4810 | 25800 | 446 | 137 | 208 | 186 | 187 | 175
SGKENKTATGEAPSQ | 14400 | 25200 | 24300 | 2250 | 2250 | 20300 | 6920 | 2570 | 273 | 681 | 731 | 136
TPPSGKDNKAAAGGA | 362 | 416 | 1140 | 1280 | 20000 | 2450 | 654 | 679 | 169 | 182 | 112 | 529
TSSTPPSGTDKKAAT | 34400 | 5830 | 36700 | 8180 | 40900 | 6520 | 706 | 134 | 160 | 215 | 1450 | 239
PSGKDKKAATGGAPS | 2860 | 725 | 2100 | 5320 | 4940 | 3280 | 248 | 395 | 82.8 | 282 | 85.5 | 101
TDNKPAAGETPSPPG | 1330 | 252 | 20300 | 378 | 178 | 4520 | 99.4 | 365 | 191 | 152 | 275 | 1070
TDKKTAAGETPSPPG | 276 | 360 | 353 | 456 | 351 | 3260 | 115 | 200 | 222 | 675 | 160 | 1110
TEKKTATGGAPSQPG | 1840 | 273 | 1730 | 4020 | 1250 | 1680 | 339 | 295 | 175 | 133 | 353 | 215
SGKEKKAAAGETPSQ | 6450 | 900 | 4340 | 4210 | 7890 | 6780 | 186 | 169 | 116 | 264 | 101 | 127
TPPSGTENKPAAGET | 50600 | 47000 | 50200 | 322 | 4570 | 32900 | 11400 | 1500 | 708 | 864 | 787 | 781
TSSTPPSGKEKKPAT | 17800 | 480 | 557 | 211 | 34900 | 301 | 642 | 675 | 101 | 250 | 92.3 | 191
SGTDKKPATGGTPSQ | 2230 | 1540 | 28600 | 12900 | 2730 | 1400 | 317 | 549 | 1120 | 430 | 1810 | 266
KDKKTAAGETPSPPG | 145 | 182 | 157 | 185 | 179 | 771 | 124 | 103 | 114 | 271 | 77.6 | 222
TPPSGKEKKPAAGGT | 9910 | 258 | 399 | 1150 | 32900 | 791 | 366 | 347 | 475 | 200 | 94.8 | 206

Sequence | antibody binding signal [1] | antibody binding signal [2] | antibody binding signal [3] | antibody binding signal [4] | antibody binding signal [5] | antibody binding signal [6] | antibody binding signal [7] | antibody binding signal [8] | antibody binding signal [9] | antibody binding signal [10] | antibody binding signal [11] | antibody binding signal [12]
KKPATGGTPSQPGAS | 328 | 582 | 1080 | 1030 | 255 | 250 | 528 | 502 | 614 | 220 | 256 | 360
SGTENKPAAGEAPSQ | 45300 | 24700 | 38800 | 517 | 925 | 18400 | 559 | 1230 | 207 | 128 | 172 | 116
SGTEKKPAAGGAPSQ | 2290 | 345 | 5450 | 7460 | 2390 | 1890 | 175 | 1070 | 695 | 92.8 | 404 | 1200
GKDKKPATGETPSPP | 27200 | 4230 | 19800 | 3950 | 4520 | 19900 | 162 | 150 | 87.2 | 140 | 627 | 164
GTDKKAATGGTPSPP | 435 | 406 | 295 | 2310 | 911 | 1280 | 225 | 175 | 414 | 789 | 131 | 124
KDNKTATGGTPSQPG | 441 | 227 | 281 | 3380 | 305 | 454 | 674 | 156 | 164 | 228 | 636 | 155
DKKAATGEAPSQPGA | 23100 | 20400 | 41500 | 186 | 401 | 23500 | 488 | 104 | 161 | 528 | 221 | 216
GTDKKTAAGETPSQS | 204 | 327 | 633 | 1350 | 412 | 1210 | 96.2 | 331 | 200 | 664 | 193 | 92.9
GTDKKAAAGGTPSPP | 309 | 235 | 230 | 5720 | 415 | 1440 | 128 | 201 | 1220 | 193 | 165 | 152
TPPSGTDNKPAAGET | 29400 | 43600 | 41300 | 3370 | 11800 | 22600 | 2150 | 814 | 547 | 603 | 935 | 335
TEKKPAAGGTPSQSG | 1030 | 172 | 367 | 5520 | 501 | 1860 | 180 | 184 | 2230 | 146 | 263 | 1200
GKDKKPATGGAPSQP | 538 | 549 | 7710 | 613 | 857 | 1220 | 195 | 258 | 84.8 | 109 | 78.7 | 90.4
SGKEKKAATGGAPSP | 3490 | 649 | 2460 | 2160 | 3950 | 4510 | 358 | 290 | 107 | 357 | 100 | 131
GTENKTATGEAPSQP | 29400 | 37100 | 42200 | 1350 | 2120 | 22700 | 177 | 274 | 222 | 235 | 163 | 89.5
SGTEKKTAAGGAPSP | 423 | 217 | 661 | 9270 | 1500 | 1510 | 189 | 388 | 147 | 214 | 293 | 167
TPPSGTEKKPATGGT | 37900 | 5750 | 39100 | 535 | 31400 | 6330 | 1180 | 847 | 1580 | 200 | 348 | 1090
TPPSGKDKKPATGGA | 4200 | 517 | 3130 | 864 | 41600 | 748 | 353 | 390 | 109 | 192 | 98.1 | 317
TDKKAAAGETPSPSG | 514 | 286 | 800 | 369 | 373 | 2410 | 148 | 189 | 220 | 182 | 406 | 1970
NKTAAGGAPSQSGAS | 346 | 252 | 2360 | 5230 | 2120 | 467 | 885 | 1200 | 666 | 318 | 661 | 1240
DNKAAAGEAPSPPGA | 532 | 316 | 22300 | 144 | 134 | 11700 | 136 | 220 | 143 | 136 | 237 | 89.2
KENKPATGGAPSQSG | 780 | 1790 | 4030 | 404 | 851 | 3550 | 418 | 690 | 130 | 125 | 197 | 163
NKAAAGETPSQPGAS | 1580 | 8690 | 39600 | 241 | 256 | 2630 | 518 | 2100 | 450 | 872 | 342 | 1150
STPPSGTENKAATGG | 55900 | 51100 | 53700 | 459 | 8130 | 43000 | 3600 | 707 | 396 | 965 | 303 | 698
TDKKTAAGETPSQPG | 557 | 2250 | 25800 | 312 | 245 | 1600 | 110 | 363 | 398 | 781 | 175 | 139
SGTENKTATGGAPSP | 31700 | 15600 | 20400 | 732 | 738 | 5670 | 573 | 377 | 208 | 318 | 419 | 242
